From the supplement of paper PMC4967469
By IC50 is meant the dose at which the fit gives 50% viability; where the fit passes the top or lowest dose, that dose stands as a limit. AUC, from the same fit, is the share of area under the viability curve across the 256-fold dose range; it is 1 without any effect and falls as sensitivity rises. For part of these data: An inferred top dose was derived from the fitted curves, not read from the paper.

Legend:
Assay in all cases: Viability of human cancer cell lines after 72 h of drug (GDSC screen)
[1] = compound: C=CC(=O)Nc1cc(-n2c(=O)ccc3cnc4ccc(-c5ccc(NS(C)(=O)=O)cc5)cc4c32)ccc1C [BMX-IN-1 (QL-XII-61)]; details: top dose 10 µM; top dose inferred
Method: (§1)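 Human cancer cell lines in 384-well plates, medium with 10% serum, drug for 72 h over a 256-fold dose range (nine 2-fold or five 4-fold steps up to the top dose). Adherent lines were fixed and stained with the nucleic acid dye Syto60, suspension lines read with resazurin; signal relative to control wells, capped at 0 and 100%. One two-parameter sigmoid per drug and line, fitted in a mixed model over all curves with the slope shared within a line.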

[2] = compound: C=CCNC1=C2C[C@@H](C)C[C@H](OC)[C@H](O)[C@@H](C)/C=C(\C)[C@H](OC(N)=O)[C@@H](OC)/C=C\C=C(/C)C(=O)NC(=CC1=O)C2=O [17-AAG]; details: top dose 1 µM
Method: as §1

[3] = compound: CCc1cc(-c2n[nH]c(C)c2-c2ccc3c(c2)OCCO3)c(O)cc1O [CCT018159]; details: top dose 10 µM; top dose inferred
Method: as §1

[4] = compound: CN(C)Cc1cccc(N=C(c2ccccc2)c2c(O)[nH]c3cc(C(=O)N(C)C)ccc23)c1 [BIX02189]; details: top dose 20 µM; top dose inferred
Method: as §1

[5] = compound: COC(=O)CNC(=O)C(=O)OC [Dimethyloxalylglycine]; details: top dose 4000 µM; top dose inferred
Method: as §1

[6] = compound: COc1cccc2c1C(=O)c1c(O)c3c(c(O)c1C2=O)C[C@@](O)(C(=O)CO)C[C@@H]3O[C@H]1C[C@H](N)[C@H](O)[C@H](C)O1 [Doxorubicin]; details: top dose 1.024 µM
Method: as §1

[7] = compound: COc1cccc2cc(-c3nc([C@H]4CC[C@H](C(=O)O)CC4)n4ncnc(N)c34)[nH]c12 [OSI-027]; details: top dose 20 µM
Method: as §1

[8] = compound: CS(=O)(=O)c1ccc(C(=O)Nc2ccc(Cl)c(-c3ccccn3)c2)c(Cl)c1 [Vismodegib]; details: top dose 10 µM; top dose inferred
Method: as §1

[9] = compound: Cc1cnc(Nc2ccc(F)cc2Cl)nc1-c1c[nH]c(C(=O)N[C@H](CO)c2cccc(Cl)c2)c1 [VX-11e]; details: top dose 5.12 µM; top dose inferred
Method: as §1

[10] = compound: Cc1cnc(Nc2ccc(OCCN3CCCC3)cc2)nc1Nc1cccc(S(=O)(=O)NC(C)(C)C)c1 [TG101348]; details: top dose 10.24 µM
Method: as §1

[11] = compound: O=C(c1ccc(C(=O)N2CCC(N3CCCC3)CC2)c(Nc2ccccc2)c1)N1CCC(N2CCCC2)CC1 [UNC1215]; details: top dose 1 µM; top dose inferred
Method: as §1

Cell Line	AUC [1]	IC50 [1]	AUC [2]	IC50 [2]	AUC [3]	IC50 [3]	AUC [4]	IC50 [4]	AUC [5]	IC50 [5]	AUC [6]	IC50 [6]	AUC [7]	IC50 [7]	AUC [8]	IC50 [8]	AUC [9]	IC50 [9]	AUC [10]	IC50 [10]	AUC [11]	IC50 [11]
T84 (large intestine, adherent)	0.988	> 10 µM	0.967	> 1 µM	0.939	> 10 µM	0.963	> 20 µM	0.891	> 4000 µM	0.483	0.0575 µM	0.795	9.44 µM	0.989	> 10 µM	0.846	3.84 µM	0.928	> 10.2 µM	0.988	> 1 µM
TE-5 (oesophagus, adherent)	0.924	> 10 µM	0.906	> 1 µM	0.964	> 10 µM	0.978	> 20 µM	0.715	1120 µM	0.448	0.0451 µM	0.453	0.913 µM	0.961	> 10 µM	0.978	> 5.12 µM	0.956	> 10.2 µM	0.982	> 1 µM
TE-8 (oesophagus, adherent)	0.895	> 10 µM	0.621	0.138 µM	0.871	> 10 µM	0.92	> 20 µM	0.719	1100 µM	0.217	0.00884 µM	0.876	> 20 µM	0.957	> 10 µM	0.947	> 5.12 µM	0.98	> 10.2 µM	0.982	> 1 µM
TE-9 (oesophagus, adherent)	0.985	> 10 µM	0.708	0.248 µM	0.856	8.56 µM	0.987	> 20 µM	0.719	1070 µM	0.657	0.178 µM	0.964	> 20 µM	0.977	> 10 µM	0.977	> 5.12 µM	0.987	> 10.2 µM	0.983	> 1 µM
TE-12 (oesophagus, suspension)	0.973	> 10 µM	0.689	0.239 µM	0.872	> 10 µM	0.948	> 20 µM	0.477	213 µM	0.5	0.0641 µM	0.356	0.458 µM	0.922	> 10 µM	0.933	> 5.12 µM	0.852	> 10.2 µM	0.978	> 1 µM
TGBC1TKB (biliary tract, adherent)	0.986	> 10 µM	0.479	0.0548 µM	0.966	> 10 µM	0.989	> 20 µM	0.694	869 µM	0.87	0.942 µM	0.912	> 20 µM	0.985	> 10 µM	0.988	> 5.12 µM	0.987	> 10.2 µM	0.983	> 1 µM
TGW (neuroblastoma, adherent)	0.988	> 10 µM	0.991	> 1 µM	0.928	> 10 µM	0.967	> 20 µM	0.842	2240 µM	0.899	0.971 µM	0.703	4.24 µM	0.97	> 10 µM	0.989	> 5.12 µM	0.861	6.74 µM	0.99	> 1 µM
TK (B-cell lymphoma, suspension)	0.902	> 10 µM	0.981	> 1 µM	0.932	> 10 µM	0.934	> 20 µM	0.244	49.8 µM	0.749	0.307 µM	0.198	0.177 µM	0.988	> 10 µM	0.984	> 5.12 µM	0.791	4.16 µM	0.98	> 1 µM
TMK-1 (stomach, adherent)	0.908	> 10 µM	0.496	0.0608 µM	0.909	> 10 µM	0.977	> 20 µM	0.467	202 µM	0.614	0.134 µM	0.855	17.4 µM	0.939	> 10 µM	0.964	> 5.12 µM	0.931	> 10.2 µM	0.984	> 1 µM
TOV-21G (ovary, adherent)	0.826	6.78 µM	0.206	0.00773 µM	0.921	> 10 µM	0.984	> 20 µM	0.921	> 4000 µM	0.797	0.532 µM	0.974	> 20 µM	0.939	> 10 µM	0.983	> 5.12 µM	0.867	> 10.2 µM	0.983	> 1 µM
TT2609-C02 (thyroid, adherent)	0.985	> 10 µM	0.385	0.0295 µM	0.919	> 10 µM	0.956	> 20 µM	0.282	57.5 µM	0.349	0.0237 µM	0.66	3.59 µM	0.98	> 10 µM	0.846	4.09 µM	0.807	5.69 µM	0.985	> 1 µM
TT (thyroid, adherent)	0.967	> 10 µM	0.97	> 1 µM	0.918	> 10 µM	0.978	> 20 µM	0.594	500 µM	0.956	> 1.02 µM	0.957	> 20 µM	0.983	> 10 µM	0.973	> 5.12 µM	0.859	> 10.2 µM	0.973	> 1 µM
TUR (B-cell lymphoma, suspension)	0.797	4.32 µM	0.494	0.0602 µM	0.808	4.71 µM	0.894	> 20 µM	0.437		0.559	0.0914 µM	0.216	0.201 µM	0.965	> 10 µM	0.893	> 5.12 µM	0.555	0.891 µM	0.985	> 1 µM
TYK-nu (ovary, adherent)	0.983	> 10 µM	0.473	0.0523 µM	0.906	> 10 µM	0.975	> 20 µM	0.864	3920 µM	0.823		0.923	> 20 µM	0.956	> 10 µM	0.951	> 5.12 µM	0.943	> 10.2 µM	0.983	> 1 µM
UACC-893 (breast, adherent)	0.98	> 10 µM	0.753	0.44 µM	0.943	> 10 µM	0.977	> 20 µM	0.898	> 4000 µM	0.798	0.688 µM	0.446	0.845 µM	0.976	> 10 µM	0.93	> 5.12 µM	0.944	> 10.2 µM	0.98	> 1 µM
VA-ES-BJ (soft tissue, adherent)	0.983	> 10 µM	0.457	0.0473 µM	0.912	> 10 µM	0.984	> 20 µM	0.713	1040 µM	0.445	0.045 µM	0.571	1.98 µM	0.967	> 10 µM	0.985	> 5.12 µM	0.973	> 10.2 µM	0.984	> 1 µM
VAL (B-cell lymphoma, suspension)	0.976	> 10 µM	0.986	> 1 µM	0.947	> 10 µM	0.807	10.3 µM	0.495	243 µM	0.597	0.118 µM	0.189	0.147 µM	0.981	> 10 µM	0.948	> 5.12 µM	0.755	3.48 µM	0.984	> 1 µM
VCaP (prostate, adherent)	0.986	> 10 µM	0.943	> 1 µM	0.986	> 10 µM	0.979	> 20 µM	0.875	> 4000 µM	0.682	0.211 µM	0.543	1.64 µM	0.987	> 10 µM	0.987	> 5.12 µM	0.637	1.56 µM	0.985	> 1 µM
VMRC-RCZ (kidney, adherent)	0.939	> 10 µM	0.654	0.18 µM	0.955	> 10 µM	0.945	> 20 µM	0.68	869 µM	0.49	0.06 µM	0.307	0.325 µM	0.964	> 10 µM	0.962	> 5.12 µM	0.867	> 10.2 µM	0.981	> 1 µM
WIL2-NS (lymphoid neoplasm, suspension)	0.853	5.67 µM	0.908	0.935 µM	0.962	> 10 µM	0.896	16.4 µM	0.78	1330 µM	0.296	0.0193 µM	0.208	0.216 µM	0.986	> 10 µM	0.887	3.89 µM	0.635	1.39 µM	0.985	> 1 µM
WM35 (melanoma, adherent)	0.985	> 10 µM	0.804	0.503 µM	0.977	> 10 µM	0.945	> 20 µM	0.596	460 µM	0.623		0.124	< 0.0781 µM	0.876	> 10 µM	0.652	0.849 µM	0.778	4.18 µM	0.985	> 1 µM
WM1552C (melanoma, adherent)	0.986	> 10 µM	0.779	0.412 µM	0.956	> 10 µM	0.986	> 20 µM	0.634	587 µM	0.485	0.0582 µM	0.558	1.81 µM	0.986	> 10 µM	0.987	> 5.12 µM	0.776	4.1 µM	0.985	> 1 µM
WM-115 (melanoma, adherent)	0.92	> 10 µM	0.444	0.0425 µM	0.928	> 10 µM	0.945	> 20 µM	0.484	224 µM	0.979	> 1.02 µM	0.332	0.38 µM	0.916	> 10 µM	0.772	2.44 µM	0.801	6.36 µM	0.977	> 1 µM
WSU-DLCL2 (B-cell lymphoma, suspension)	0.459	0.494 µM	0.935	> 1 µM	0.928	> 10 µM	0.993	> 20 µM	0.968	> 4000 µM	0.587	0.106 µM	0.749	5.55 µM	0.971	> 10 µM	0.993	> 5.12 µM	0.673	1.76 µM	0.99	> 1 µM
